Our source for the binding values is paper PMC7261776.

Protein sequences, listed by entry. Tags and fused reporters are not part of them.
UniProt A0A7G3WX94: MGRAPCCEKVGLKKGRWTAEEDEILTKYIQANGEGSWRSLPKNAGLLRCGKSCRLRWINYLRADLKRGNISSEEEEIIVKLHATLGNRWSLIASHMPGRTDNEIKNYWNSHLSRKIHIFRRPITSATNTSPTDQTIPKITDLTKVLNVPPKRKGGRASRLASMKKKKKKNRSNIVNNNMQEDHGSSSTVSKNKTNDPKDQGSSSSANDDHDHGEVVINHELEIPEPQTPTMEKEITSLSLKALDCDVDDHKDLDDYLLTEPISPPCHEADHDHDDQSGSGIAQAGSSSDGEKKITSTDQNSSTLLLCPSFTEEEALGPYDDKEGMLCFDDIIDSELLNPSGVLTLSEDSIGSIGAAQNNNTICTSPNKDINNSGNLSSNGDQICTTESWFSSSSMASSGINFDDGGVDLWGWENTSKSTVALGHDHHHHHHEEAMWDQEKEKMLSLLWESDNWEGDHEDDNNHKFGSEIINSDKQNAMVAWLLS
UniProt A0A7G3WX88: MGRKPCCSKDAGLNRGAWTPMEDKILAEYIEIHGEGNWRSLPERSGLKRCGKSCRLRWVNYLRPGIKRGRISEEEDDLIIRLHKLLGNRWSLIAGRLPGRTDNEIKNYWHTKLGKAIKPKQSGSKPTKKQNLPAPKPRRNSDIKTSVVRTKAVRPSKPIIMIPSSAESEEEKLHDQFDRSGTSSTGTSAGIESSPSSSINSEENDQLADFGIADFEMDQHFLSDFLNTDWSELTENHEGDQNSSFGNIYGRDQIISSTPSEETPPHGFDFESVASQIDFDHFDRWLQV
UniProt A0A7G3WX89: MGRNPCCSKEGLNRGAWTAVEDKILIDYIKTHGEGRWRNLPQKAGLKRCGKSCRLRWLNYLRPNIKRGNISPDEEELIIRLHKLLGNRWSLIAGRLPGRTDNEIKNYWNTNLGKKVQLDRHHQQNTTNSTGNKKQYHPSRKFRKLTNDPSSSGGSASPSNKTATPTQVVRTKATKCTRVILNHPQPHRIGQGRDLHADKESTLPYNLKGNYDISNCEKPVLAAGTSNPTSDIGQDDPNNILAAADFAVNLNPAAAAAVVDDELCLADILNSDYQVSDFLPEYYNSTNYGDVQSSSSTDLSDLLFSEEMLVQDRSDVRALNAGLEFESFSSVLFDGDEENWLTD
UniProt A0A7G3WX91: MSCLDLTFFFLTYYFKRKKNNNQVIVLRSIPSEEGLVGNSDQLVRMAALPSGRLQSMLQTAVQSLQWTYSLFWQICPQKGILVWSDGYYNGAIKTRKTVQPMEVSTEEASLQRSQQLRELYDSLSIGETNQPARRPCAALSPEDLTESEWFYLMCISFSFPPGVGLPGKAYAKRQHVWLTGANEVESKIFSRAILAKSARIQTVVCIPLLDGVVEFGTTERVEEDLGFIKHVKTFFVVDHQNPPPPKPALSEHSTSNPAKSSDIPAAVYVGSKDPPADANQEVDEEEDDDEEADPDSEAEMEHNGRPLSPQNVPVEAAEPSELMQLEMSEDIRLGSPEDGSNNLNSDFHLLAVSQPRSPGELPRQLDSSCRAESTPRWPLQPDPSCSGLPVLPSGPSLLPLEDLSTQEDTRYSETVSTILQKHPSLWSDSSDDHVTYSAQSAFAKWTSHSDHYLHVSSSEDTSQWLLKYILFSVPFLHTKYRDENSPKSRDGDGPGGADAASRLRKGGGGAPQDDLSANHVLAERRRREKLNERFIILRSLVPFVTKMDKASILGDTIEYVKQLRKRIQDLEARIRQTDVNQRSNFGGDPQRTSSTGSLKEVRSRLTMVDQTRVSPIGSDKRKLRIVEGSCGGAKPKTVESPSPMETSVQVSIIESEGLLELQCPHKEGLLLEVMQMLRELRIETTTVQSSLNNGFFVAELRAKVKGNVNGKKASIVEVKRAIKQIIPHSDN
UniProt A0A7G3WX95: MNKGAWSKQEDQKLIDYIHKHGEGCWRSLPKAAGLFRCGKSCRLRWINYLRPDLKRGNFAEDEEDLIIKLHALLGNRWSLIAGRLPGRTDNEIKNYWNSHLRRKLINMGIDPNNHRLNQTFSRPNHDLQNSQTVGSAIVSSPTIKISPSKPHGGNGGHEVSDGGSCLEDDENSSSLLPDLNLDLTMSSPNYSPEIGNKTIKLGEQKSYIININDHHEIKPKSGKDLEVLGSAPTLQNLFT

Test [1] deals with bHLH3 (yeast two-hybrid fusion) (Morus alba L. cv. Hongguo2). Nature of the test: two-hybrid; yeast two-hybrid with pGADT7 and pGBKT7 fusions; SD-Trp-Leu-His-Ade+(X-a-Gal) medium.
The target in test [2] is T1, GL3 (yeast two-hybrid fusion) (Morus alba L. cv. Hongguo2).
T1 sequence: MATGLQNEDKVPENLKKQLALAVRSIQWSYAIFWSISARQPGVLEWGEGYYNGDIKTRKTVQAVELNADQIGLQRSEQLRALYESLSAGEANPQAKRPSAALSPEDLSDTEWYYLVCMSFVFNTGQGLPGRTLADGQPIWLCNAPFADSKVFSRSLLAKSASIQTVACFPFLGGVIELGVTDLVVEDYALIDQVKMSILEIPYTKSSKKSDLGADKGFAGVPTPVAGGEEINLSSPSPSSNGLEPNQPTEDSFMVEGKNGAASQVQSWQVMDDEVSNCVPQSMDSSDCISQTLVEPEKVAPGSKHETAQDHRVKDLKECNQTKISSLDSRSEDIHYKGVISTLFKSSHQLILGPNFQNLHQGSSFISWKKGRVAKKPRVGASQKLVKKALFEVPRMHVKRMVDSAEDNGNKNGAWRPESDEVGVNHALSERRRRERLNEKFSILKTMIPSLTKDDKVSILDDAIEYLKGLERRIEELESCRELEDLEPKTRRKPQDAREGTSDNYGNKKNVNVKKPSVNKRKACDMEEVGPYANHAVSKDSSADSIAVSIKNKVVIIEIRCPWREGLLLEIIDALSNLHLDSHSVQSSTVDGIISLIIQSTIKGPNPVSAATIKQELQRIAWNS
Described as above.

Test [3] has as its target T2, TTG1 (yeast two-hybrid fusion) (Morus alba L. cv. Hongguo2).
T2 sequence: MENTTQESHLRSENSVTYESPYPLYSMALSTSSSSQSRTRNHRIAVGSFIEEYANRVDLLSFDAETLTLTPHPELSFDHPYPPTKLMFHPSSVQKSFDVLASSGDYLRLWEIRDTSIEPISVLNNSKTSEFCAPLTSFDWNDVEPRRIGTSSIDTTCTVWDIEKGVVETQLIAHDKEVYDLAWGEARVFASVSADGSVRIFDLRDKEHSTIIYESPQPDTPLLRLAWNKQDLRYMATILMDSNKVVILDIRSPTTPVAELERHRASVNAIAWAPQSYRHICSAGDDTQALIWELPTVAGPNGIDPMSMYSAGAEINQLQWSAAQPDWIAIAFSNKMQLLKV
The test is described as above.

Test [4] addresses CLuc-bHLH3 (Morus alba L. cv. Hongguo2). Nature of the test: split reporter; split luciferase complementation in Nicotiana benthamiana leaves (pCambia1300nLUC / pCambia1300cLUC), firefly luciferase activity 3 days after infiltration.
Test [5] has as its target T3, CLuc-GL3 (Morus alba L. cv. Hongguo2).
T3 sequence: T1 sequence
The test is described as above.

The target of test [6] is T4, TTG1-NLuc (Morus alba L. cv. Hongguo2).
T4 sequence: T2 sequence
Described as above.

Test [7] deals with T5, TTG1 (BiFC fusion) (Morus alba L. cv. Hongguo2).
T5 sequence: T2 sequence
Nature of the test: split reporter; BiFC with pSPYNE and pSPYCE fusions, as described by Lv et al.

In test [8] the target is bHLH3 (BiFC fusion) (Morus alba L. cv. Hongguo2). The test is described as above.
Test [9] concerns the target T6, GL3 (BiFC fusion) (Morus alba L. cv. Hongguo2).
T6 sequence: T1 sequence
Described as above.

Test [10] addresses T7, TTG1 in pBridge MCS I (yeast three-hybrid bait) (Morus alba L. cv. Hongguo2).
T7 sequence: T2 sequence
Description: yeast three-hybrid; Y2HGold; TTG1 in pBridge MCS I, bHLH3 in pBridge MCS II, MYB in pGADT7; SC-Leu-Trp-Met-His medium with 0 and 30 mM 3-AT.

For test [11], the target named is T2, TTG1 (yeast two-hybrid fusion) (Morus alba L. cv. Hongguo2). Nature of the test: two-hybrid; yeast two-hybrid with pGADT7 and pGBKT7 fusions; SD-Trp-Leu-His-Ade+(X-a-Gal) medium. The source holds these as a separate data set.

Like-named read-outs stand apart in the source and are kept apart here. No constants are given. Whether binding was seen depends on the method and setting. For part of these data: Binding seen in cells or lysates may run through a third protein. Some entries that bind do so weakly or less than the wild type. For part of these data: Where a sequence is shown, tags or fusion partners need not be part of it.

As to “MYBF (yeast two-hybrid fusion) (from UniProt A0A7G3WX94 1-484)”, the binding entry in test [1], in test [2] and in test [3] was “no binding” in each case.
In the case of “TT2L2 (yeast two-hybrid fusion) (from UniProt A0A7G3WX88 1-288)”, the binding result in test [1] is “binds”; in [2], “binds”; in [3], “no binding”.
As to “TT2L1-NLuc (from UniProt A0A7G3WX89 1-343)”, the binding entry in [4] and in [5] was “binds” each time.
For “CLuc-bHLH3 (from UniProt A0A7G3WX91 1-732)”, the binding result in [6] is “binds”.
For the molecule “TT2L2 (BiFC fusion) (from UniProt A0A7G3WX88 1-288)”, the binding result in test [7] is recorded as “no binding”; in [8] it was “binds”; in [9], “binds”.
In the case of “MYB4 (BiFC fusion) (from UniProt A0A7G3WX95 1-240)”, the binding result in test [7], in [8] and in test [9] was “binds” throughout.
As to “TT2L1 (BiFC fusion) (from UniProt A0A7G3WX89 1-343)”, the results for the binding entry in test [7], in [8] and in test [9] were “no binding”, “binds” and “binds”, respectively.
For “bHLH3 in pBridge MCS II (yeast three-hybrid bridge) (from UniProt A0A7G3WX91 1-732)”, in [10], the binding entry was “binds”.
Consider “bHLH3 (BiFC fusion) (from UniProt A0A7G3WX91 1-732)”, for which the binding entry in test [7] is “binds”.
Take “TT2L1 (yeast two-hybrid fusion) (from UniProt A0A7G3WX89 1-343)”: the binding entry in test [1] is “binds”; in [2] it was “binds”; in [3], “no binding”.
On to “bHLH3 (yeast two-hybrid fusion) (from UniProt A0A7G3WX91 1-732)”, for which the binding result in test [3] was “binds”.
For “MYBF (BiFC fusion) (from UniProt A0A7G3WX94 1-484)”, the binding entry in [7], in test [8] and in test [9] was “no binding” in each case.
For the molecule “TT2L2-NLuc (from UniProt A0A7G3WX88 1-288)”, the binding entry in test [4] and in test [5] was “binds” in each case.

B1: GL3 (BiFC fusion) (protein, UniProt A0A7G3WX92 1-624)
chain: T1 sequence
Turning to B1, the binding result in test [7] was “binds”.

B2: GL3 (yeast two-hybrid fusion) (protein, UniProt A0A7G3WX92 1-624)
chain: T1 sequence
In the case of B2, the binding result in test [11] is “binds”.

B3: MYBA (BiFC fusion) (protein, UniProt A0A7G3WX87 1-311)
chain: MQTEGCSSTGGVRKGAWTREEDILLKKCIDKYGEGKWQLVPSRAGLNRCRKSCRLRWMNYLKPDVKRGEFTVDEVDLILRLHKLLGNRWALIAGRIPGRTANDVKNYWNTHLRKKVALFPHDKNTKNTNNDIIAKSKVFRPRPRTPKTQPSLTNKNNSASSTTNFAAISINIQPTDDGNNNNNNNINYNNNNNNEPVIPVLEDSKYWWESLLDDITSDEGVANSVSSTGLLDHGQPNNGNIANFLSELEADQPALSISPWPTDVTDSATSTCVNLVEDDYGHQNSWTDFIMDMDVELWGLPSKDQGNAEMQ
With B3, the binding result in [7], in test [8] and in test [9] was “binds” each time.

B4: MYBA-NLuc (protein, UniProt A0A7G3WX87 1-311)
chain: B3 chain
As for B4, the binding result in [4] and in test [5] was “binds” each time.

B5: TT2L3 (BiFC fusion) (protein, UniProt A0A7G3WX90 1-238)
chain: MGERRPRISGGSDEGSSRRWTAMEDKTLTEYIRINGERQWNCLPQNAGLKKSGRSCRLRWLNYLKPGIKRGNISQKEEDTIIRLHKNLGNRWSVIAGLLPGRTDNEIKNYWNTKISKKIKEDDCKADSTTSSDPKPSIGHESLEVPNLTTKQQLGLCEVPQTSLNESDETSIPSPEEARMELEDDPVAAQPRDIYGVVHEHFETILSPVRICEDKWQLMHDDVWMDFEIWNTFPDQQY
Regarding B5, the binding entry in [7], in test [8] and in test [9] was “no binding” throughout.
